Results from article PMC4336329 (PLoS ONE, 2015).
About 2,200 (0.71%) of roughly 310,000 compounds showed an effect of 50% or more. Effects have a minus sign here. Some of the results follow.

molecular target: human ether-à-go-go-related gene (hERG) potassium channel (human, UniProt Q12809); test: primary screen, population patch clamp on CHO cells stably expressing hERG
Sequence (Q12809 whole entry, looked up): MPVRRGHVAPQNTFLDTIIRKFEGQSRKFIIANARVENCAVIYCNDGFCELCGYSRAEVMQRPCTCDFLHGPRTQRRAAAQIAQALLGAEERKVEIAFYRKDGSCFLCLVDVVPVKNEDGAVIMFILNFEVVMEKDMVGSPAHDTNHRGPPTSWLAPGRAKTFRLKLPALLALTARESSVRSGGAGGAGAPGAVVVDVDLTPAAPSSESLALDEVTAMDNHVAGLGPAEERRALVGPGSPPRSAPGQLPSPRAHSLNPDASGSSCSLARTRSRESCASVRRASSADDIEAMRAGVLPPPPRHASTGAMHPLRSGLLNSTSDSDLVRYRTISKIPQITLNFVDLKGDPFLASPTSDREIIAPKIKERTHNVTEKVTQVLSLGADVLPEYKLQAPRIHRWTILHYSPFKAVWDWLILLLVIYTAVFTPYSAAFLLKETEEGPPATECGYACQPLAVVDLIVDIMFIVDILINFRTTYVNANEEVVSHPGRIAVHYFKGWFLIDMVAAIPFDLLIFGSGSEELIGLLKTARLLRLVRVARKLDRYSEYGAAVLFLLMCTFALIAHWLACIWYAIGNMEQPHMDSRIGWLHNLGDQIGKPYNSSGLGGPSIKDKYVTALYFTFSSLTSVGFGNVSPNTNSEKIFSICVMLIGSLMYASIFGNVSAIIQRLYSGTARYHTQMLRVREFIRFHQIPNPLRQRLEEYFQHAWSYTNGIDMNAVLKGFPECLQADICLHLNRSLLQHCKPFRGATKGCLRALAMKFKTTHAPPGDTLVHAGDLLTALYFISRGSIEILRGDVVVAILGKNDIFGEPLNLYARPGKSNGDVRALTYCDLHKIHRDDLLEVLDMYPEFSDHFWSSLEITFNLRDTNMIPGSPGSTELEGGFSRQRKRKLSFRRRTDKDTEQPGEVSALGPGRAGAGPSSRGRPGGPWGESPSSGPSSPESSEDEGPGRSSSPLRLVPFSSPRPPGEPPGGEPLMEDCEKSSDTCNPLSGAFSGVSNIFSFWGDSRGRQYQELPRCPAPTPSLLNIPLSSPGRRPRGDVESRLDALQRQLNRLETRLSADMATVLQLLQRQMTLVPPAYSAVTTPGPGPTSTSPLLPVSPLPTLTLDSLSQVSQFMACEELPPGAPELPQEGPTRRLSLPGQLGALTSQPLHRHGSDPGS

Row | Structure (SMILES) | hERG current change (%, negative = inhibition) at 1uM [%]
1 | Clc1cc(Cl)c2nc(N3CCOCC3)sc2c1 | -0.122
2 | O=C(CN1C(=O)C(=O)N(C2CCCC2)C1=O)Nc1ccc(Cl)cc1C(F)(F)F | 12
3 | Cc1csc(=S)n1-c1ccccc1 | 11.5
4 | Cc1ccccc1S(=O)(=O)Cc1ccc(C(=O)N2CCN(c3ccccc3F)CC2)o1 | 18.1
5 | CC1N=C(N)C(c2nc3ccccc3n2C)=C1O (stereo not drawn) | 8.06
6 | Cc1nnc(NNS(=O)(=O)c2ccc(Cl)cc2)[nH]c1=O | 5.2
7 | COc1ccccc1C(=O)Nc1c2c(nn1-c1cccc(C)c1C)CS(=O)C2 (stereo not drawn) | -3.22
8 | CCCC(=O)Nc1ccc(C(=O)NNC(=S)NC(=O)c2cccs2)cc1 | 4.72
9 | Cn1ncc([N+](=O)[O-])c1C(=O)Nc1ccn(Cc2ccccc2F)n1 | 0.924
10 | CCOC(=O)C1(CCOC)CCN(Cc2ccc(C3CCCCO3)s2)CC1 (stereo not drawn) | 4.44
11 | Cc1ccc(N=Nc2cc(C)ccc2O)c(C)c1 | 6.78
12 | COC(=O)[C@H]1C[C@H](C(=O)O)[C@@H](C)C1(C)C | 9.34
13 | O=C(CSc1nc2ccccc2s1)NC1CCCc2ccccc21 (stereo not drawn) | 11.2
14 | COc1ccc(CCNS(=O)(=O)c2cn(C)c(=O)n(C)c2=O)cc1 | 21.7
15 | O=[N+]([O-])c1cc(CN2CCC(O)CC2)ccc1Cl | 8.39
16 | Cc1ccc(-n2ncc3c2CC(C)(C)CC3NC(=O)c2ccccn2)cc1 (stereo not drawn) | 5.27
17 | CCCNC(=O)CS(=O)Cc1nc(-c2cccc(OC)c2)oc1C (stereo not drawn) | 11.3
18 | O=C(c1cc(COc2ccc(-n3cncn3)cc2)on1)N1CCCC1 | 4.01
19 | Cc1cc(Cl)ccc1N(CC(=O)NCc1ccc2c(c1)OCO2)S(C)(=O)=O | 3.99
20 | Cc1ccc2nc(-c3ccc(NC(=O)CSc4nc(N)cc(=O)[nH]4)cc3)sc2c1 | 2.36
21 | Cc1ccccc1N1CC(C(=O)O)CC1=O (stereo not drawn) | 13.8
22 | COc1ccc(Cl)cc1NC(=O)CN(C)CC(=O)NC(C)c1ccccc1 (stereo not drawn) | 6.51
23 | O=S(=O)(Nc1nc2ccccc2nc1-[n+]1ccccc1)c1ccc(Cl)cc1.[Cl-] | 16.9

Row | Structure (SMILES) | hERG current change (%, negative = inhibition) at 1uM [%]
24 | Cc1csc2nc3cc(C(N)=O)ccc3c(=O)n12 | 10.2
25 | O=C1c2ccccc2C(=O)N1CCc1c[nH]c2ccccc12 | 7.76
26 | O=C1CCCCC1C(=O)c1cn(-c2ccc(Cl)c(Cl)c2)nn1 (stereo not drawn) | 10.2
27 | O=C(N/C(=C\c1ccc(Cl)cc1)C(=O)N1CCOCC1)c1ccc([N+](=O)[O-])cc1 | -88.2
28 | O=C(CSc1nnnn1C1CC2CCC1C2)Nc1ccnc2ccccc12 (stereo not drawn) | 12.2
29 | COc1ccc(C2=NOC(C)(c3nnc(Cc4ccccc4)o3)C2)cc1 (stereo not drawn) | 6.97
30 | O=C(c1ccc2ccccc2c1)N1CCCCC1 | 9.33
31 | Fc1ccc(NC(=S)NN=C2CCCCCC2)cc1 | 12.1
32 | Cc1ccc(-c2c(C)c(-c3ccc(F)cc3)nc(N)c2C#N)o1 | -1.47
33 | COc1cccc(C2=CC(=O)CCC2)c1OC | 17.6
34 | COc1cccc(NC(=S)N2CCN(S(=O)(=O)c3ccc(F)cc3)CC2)c1 | 5.32
35 | Cc1ccc(S(=O)(=O)N2CCN(c3ccc([N+](=O)[O-])c(Sc4nncn4C)c3)CC2)cc1 | -8.87
36 | Oc1nc(-c2ccc(Cl)cc2)n2ccncc12 | 27.5
37 | CCOC(=O)CSC1=C(C#N)C(c2ccc(Cl)cc2)C(C(=O)OC)C(=O)N1 (stereo not drawn) | 7.34
38 | CCCCOC(=O)Nc1nc2ccccc2s1 | -3.96
39 | COc1cccc(CNC(=O)CN(C)S(=O)(=O)c2cnc[nH]2)c1 | 15.3
40 | O=C(CN1CCN(c2ccccn2)CC1)NCCc1ccccc1 | 1.52
41 | O=C(O)C1C2CCC(C2)C1C(=O)Nc1cc(F)ccc1F (stereo not drawn) | -1.26
42 | CN(CC(=O)Nc1c(Cl)cccc1Cl)C(=O)c1cccc(-n2cccc2)c1 | -0.706
43 | CC(C)(C)NC(=O)c1ccc(NC(=O)C2COc3ccccc3O2)cc1 (stereo not drawn) | 10.5
44 | COc1cccc(CN2CC(C(=O)NCCOc3ccccc3F)CCC2=O)c1 (stereo not drawn) | 9.67
45 | Cn1cc(C(=O)Nc2ccc(F)c(F)c2)cn1 | 16.6
46 | O=C(Cn1nnc(-c2cccs2)n1)N1c2ccccc2Sc2ccc(C(F)(F)F)cc21 | 13.5

Row | Structure (SMILES) | hERG current change (%, negative = inhibition) at 1uM [%]
47 | COc1ccccc1-c1nnc(SC(C(=O)c2c[nH]c3ccccc23)c2ccccc2)n1C (stereo not drawn) | 18.3
48 | C[C@H]1CN=C2N(CCNC(=O)CCC3CCCCC3)[C@H](Cc3ccc(O)cc3)CN21 | 14.3
49 | C=C(c1ccc(OC)cc1)c1ccc(OC)cc1 | 3.04
50 | CCOC(=O)c1cccc(NC(=O)C2CCCN(c3nnc(N4CCCC4=O)s3)C2)c1 (stereo not drawn) | 9.44
51 | CC(NC(=O)c1cc([N+](=O)[O-])cc([N+](=O)[O-])c1)c1ccc(-n2ccnc2)cc1 (stereo not drawn) | -18
52 | COc1cc(C(=O)Nc2ccn(C)n2)ccc1OC(F)F | 5.7
53 | O=C(CSc1nnc(NC(=O)c2ccccc2C(=O)O)s1)Nc1ccccc1Cl | 19.6
54 | CC(=O)N=c1scc(-c2ccccc2)n1-c1cccc(O)c1 | 16
55 | CON1C(=O)C(=O)N(OC)C(C)(C)C1C (stereo not drawn) | 0.752
56 | Cc1c(Cl)cccc1NC(=S)N(Cc1ccccc1)Cc1cccnc1 | 11.5
57 | CC(C)c1nc(SCC(=O)N2c3ccccc3CC2C)c2ccccc2n1 (stereo not drawn) | -2.81
58 | Cn1c(NNC(=O)/C=C/c2ccc3c(c2)OCO3)cc(=O)n(C)c1=O | 14.3
59 | C#Cc1cccc(-n2nnc(C(=O)OC)c2-c2ccccc2)c1 | 8.91
60 | Cc1ccc(C(=O)Nc2ccccc2C(=O)NC(Cc2ccccc2)C(=O)O)cc1 (stereo not drawn) | 10.7
61 | Cc1ccc(Cn2nnc3c(=O)n(Cc4ccccc4C)cnc32)cc1 | 9.05
62 | O=C(O)C1CCC(Cn2c(SCc3cc(=O)n4cc(Br)ccc4n3)nc3ccsc3c2=O)CC1 (stereo not drawn) | 5.8
63 | COc1ccccc1N1CCN(C(=O)CN2C(=O)C3CCCCC3C2=O)CC1 (stereo not drawn) | 13.2
64 | CCc1ccc(NC(=O)C(C)OC(=O)CN2C(=O)NC3(CCCC3)C2=O)cc1 (stereo not drawn) | 12
65 | COc1ccc(C(=O)Nc2ccccc2C(=O)O)cc1NC(=O)C(c1ccccc1)c1ccccc1 | 6.11
66 | Cc1cc(C)n2ncc(C(=O)NCc3cccnc3)c2n1 | 3.17
67 | CCOc1ccc(OCC)c(NC(=O)CN2CCN(c3cccc(C)c3)C(C)C2)c1.Cl (stereo not drawn) | 16.4
68 | COc1cc(SC)ccc1C(=O)Nc1ccc(C)cc1C | 10.4
69 | CCOC(=O)N1CCC(NC(=O)c2cc(S(=O)(=O)N3CCOCC3)ccc2F)CC1 | -5.22

Row | Structure (SMILES) | hERG current change (%, negative = inhibition) at 1uM [%]
70 | O=C(COc1ccc2ccc(=O)oc2c1)c1ccccc1 | 15.9
71 | CCC(NC(=O)N(Cc1ccccc1)Cc1ccc2c(c1)OCO2)(C(F)(F)F)C(F)(F)F | 9.15
72 | Cc1cc(C)nc(N/N=C/c2cn[nH]c2-c2ccc(F)cc2)n1 | 13.8
73 | COc1ccc(N2CCN(CC(O)COc3ccc(F)cc3)CC2)cc1.Cl (stereo not drawn) | -47.8
74 | COc1ccc(S(=O)(=O)N2CCOCC2)cc1NC(=O)CN1C(=O)NC(C)(C2CC2)C1=O (stereo not drawn) | 13.1
75 | COc1ccc(OCCC(=O)NC2=NCCS2)cc1 | -2.66
76 | O=C(CN1CCN(c2ccc(Cl)cc2[N+](=O)[O-])CC1)N1CCOCC1 | 1.27
77 | CCCC(=O)C1C(=O)NC(=O)NC1=O | 20.6
78 | C=C1SC(Nc2c(C)cc(C)cc2C)=NC12CCCCC2 | 13.3
79 | COc1ccc(NC(=O)C/C(C)=N/NC(=O)C(=O)Nc2cccc(Cl)c2C)c(OC)c1 | 6.49
80 | CCN(NC(=O)C(O)(c1ccccc1)c1ccccc1)C(=O)c1ccccc1 | 4.56
81 | COc1ccc(NCc2cc(=O)[nH]c3ccccc23)cc1 | 10.4
82 | Clc1ccccc1CSc1ncccn1 | 5.52
83 | COc1ccc(CNS(=O)(=O)NCc2ccc(C)cc2)cc1OC | -8.25
84 | O=C1c2ccccc2NC2(CCCC2)N1O | 9.23
85 | O=C(CCn1c(=S)oc2ccccc21)Nc1ccccc1Br | 16.9
86 | O=C(NCc1nnnn1-c1ccc(F)c(F)c1)c1ccc2c(c1)OCO2 | 6.02
87 | CC1(C)Cc2cccc(OCC(O)CNCc3ccccn3)c2O1.Cl (stereo not drawn) | 3.52
88 | C/C(Nc1ccc(C)cc1)=C(/C#N)C(N)=O | 6.37
89 | Cc1ccc(CC(=O)OCCNC(=O)c2cccnc2)cc1.Cl | 8.42
90 | C[C@H](NC(=O)c1nc[nH]c1C(=O)NCC(=O)OC(C)(C)C)c1ccccc1 | 8.06
